Results on twelve molecules are retold here after publication PMC11034981.

The chains behind the UniProt entries cited, without tags or fusion partners. Where a name states a change or a piece, a line headed by the entry shows the natural chain unless it says otherwise. A line that says so, or that is headed by a name, gives the form on record, which may keep a tag or linker.
Orb2A (Q9VSR3, form named): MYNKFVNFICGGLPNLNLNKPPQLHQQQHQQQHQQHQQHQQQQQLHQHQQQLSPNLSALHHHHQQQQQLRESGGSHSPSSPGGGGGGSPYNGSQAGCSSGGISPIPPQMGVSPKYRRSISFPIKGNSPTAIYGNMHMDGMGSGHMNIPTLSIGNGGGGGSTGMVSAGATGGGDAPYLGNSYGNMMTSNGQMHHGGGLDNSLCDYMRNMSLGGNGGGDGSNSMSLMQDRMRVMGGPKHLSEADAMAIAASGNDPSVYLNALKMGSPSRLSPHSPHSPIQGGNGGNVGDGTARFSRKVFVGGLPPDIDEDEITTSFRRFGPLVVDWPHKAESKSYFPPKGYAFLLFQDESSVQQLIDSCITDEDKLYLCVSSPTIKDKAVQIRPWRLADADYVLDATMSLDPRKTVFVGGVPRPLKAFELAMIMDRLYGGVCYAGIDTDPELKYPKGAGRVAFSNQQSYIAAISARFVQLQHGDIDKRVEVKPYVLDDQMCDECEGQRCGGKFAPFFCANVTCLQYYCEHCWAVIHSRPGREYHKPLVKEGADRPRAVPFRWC
UniProt O75190: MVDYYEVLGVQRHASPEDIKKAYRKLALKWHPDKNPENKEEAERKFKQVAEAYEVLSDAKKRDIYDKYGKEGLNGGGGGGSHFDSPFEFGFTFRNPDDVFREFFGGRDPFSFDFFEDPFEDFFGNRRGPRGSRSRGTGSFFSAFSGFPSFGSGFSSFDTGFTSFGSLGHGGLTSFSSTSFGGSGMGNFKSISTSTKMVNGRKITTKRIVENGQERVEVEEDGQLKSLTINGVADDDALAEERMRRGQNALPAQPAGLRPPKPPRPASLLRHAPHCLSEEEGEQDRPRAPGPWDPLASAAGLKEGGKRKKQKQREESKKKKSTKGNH
UniProt P82910: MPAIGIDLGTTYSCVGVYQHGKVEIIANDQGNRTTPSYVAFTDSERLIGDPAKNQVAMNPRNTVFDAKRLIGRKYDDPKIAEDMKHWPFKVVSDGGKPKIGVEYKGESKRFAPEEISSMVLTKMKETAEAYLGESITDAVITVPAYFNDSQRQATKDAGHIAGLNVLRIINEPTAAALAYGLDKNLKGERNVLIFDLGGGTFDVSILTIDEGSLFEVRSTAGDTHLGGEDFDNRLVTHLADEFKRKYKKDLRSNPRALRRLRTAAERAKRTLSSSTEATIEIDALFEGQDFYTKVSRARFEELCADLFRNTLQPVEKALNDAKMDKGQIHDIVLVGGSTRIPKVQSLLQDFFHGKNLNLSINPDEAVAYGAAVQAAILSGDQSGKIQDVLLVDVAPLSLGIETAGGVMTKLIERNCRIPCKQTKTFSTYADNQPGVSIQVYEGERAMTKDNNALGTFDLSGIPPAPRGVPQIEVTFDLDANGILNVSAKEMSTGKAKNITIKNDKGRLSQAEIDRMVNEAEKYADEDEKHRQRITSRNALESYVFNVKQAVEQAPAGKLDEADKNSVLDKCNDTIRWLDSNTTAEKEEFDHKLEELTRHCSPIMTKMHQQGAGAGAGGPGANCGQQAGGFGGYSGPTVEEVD
UniProt Q24133: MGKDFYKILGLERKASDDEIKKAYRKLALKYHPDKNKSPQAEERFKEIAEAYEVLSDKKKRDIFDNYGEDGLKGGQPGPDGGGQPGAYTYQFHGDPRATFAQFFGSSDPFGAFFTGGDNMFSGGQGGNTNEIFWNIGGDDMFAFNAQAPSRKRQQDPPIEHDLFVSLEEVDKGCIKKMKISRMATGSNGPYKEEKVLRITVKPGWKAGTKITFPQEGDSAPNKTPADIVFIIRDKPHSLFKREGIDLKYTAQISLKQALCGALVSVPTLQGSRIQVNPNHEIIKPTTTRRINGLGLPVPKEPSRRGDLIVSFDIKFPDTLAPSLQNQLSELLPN
UniProt P11147: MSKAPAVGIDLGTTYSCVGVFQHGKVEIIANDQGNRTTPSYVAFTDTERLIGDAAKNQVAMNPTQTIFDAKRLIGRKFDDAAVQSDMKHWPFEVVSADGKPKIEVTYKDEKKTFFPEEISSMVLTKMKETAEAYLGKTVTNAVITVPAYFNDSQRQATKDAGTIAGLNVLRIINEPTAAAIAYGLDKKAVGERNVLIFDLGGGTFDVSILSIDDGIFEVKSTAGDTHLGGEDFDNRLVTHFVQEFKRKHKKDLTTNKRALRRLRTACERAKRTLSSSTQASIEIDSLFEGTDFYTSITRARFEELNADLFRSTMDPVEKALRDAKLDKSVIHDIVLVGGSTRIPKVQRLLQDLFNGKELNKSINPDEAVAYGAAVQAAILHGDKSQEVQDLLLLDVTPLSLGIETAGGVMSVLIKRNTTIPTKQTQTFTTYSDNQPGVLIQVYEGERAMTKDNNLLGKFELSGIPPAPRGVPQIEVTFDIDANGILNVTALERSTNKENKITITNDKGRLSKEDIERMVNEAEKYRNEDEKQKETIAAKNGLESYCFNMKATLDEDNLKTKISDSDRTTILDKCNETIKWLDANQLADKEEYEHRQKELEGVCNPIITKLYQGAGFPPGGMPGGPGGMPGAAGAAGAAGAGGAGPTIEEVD
UniProt Q9VTJ8: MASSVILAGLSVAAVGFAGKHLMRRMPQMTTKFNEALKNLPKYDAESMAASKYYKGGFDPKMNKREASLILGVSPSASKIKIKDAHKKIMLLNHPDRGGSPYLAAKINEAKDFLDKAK

Results are given in words; binding and its absence hold for the method and conditions named. Binding seen in cells or lysates may run through a third protein. Some entries that bind do so weakly or less than the wild type.

The target of one assay is T1, human CPEB2 (human) (UniProt Q7Z5Q1).
T1 sequence: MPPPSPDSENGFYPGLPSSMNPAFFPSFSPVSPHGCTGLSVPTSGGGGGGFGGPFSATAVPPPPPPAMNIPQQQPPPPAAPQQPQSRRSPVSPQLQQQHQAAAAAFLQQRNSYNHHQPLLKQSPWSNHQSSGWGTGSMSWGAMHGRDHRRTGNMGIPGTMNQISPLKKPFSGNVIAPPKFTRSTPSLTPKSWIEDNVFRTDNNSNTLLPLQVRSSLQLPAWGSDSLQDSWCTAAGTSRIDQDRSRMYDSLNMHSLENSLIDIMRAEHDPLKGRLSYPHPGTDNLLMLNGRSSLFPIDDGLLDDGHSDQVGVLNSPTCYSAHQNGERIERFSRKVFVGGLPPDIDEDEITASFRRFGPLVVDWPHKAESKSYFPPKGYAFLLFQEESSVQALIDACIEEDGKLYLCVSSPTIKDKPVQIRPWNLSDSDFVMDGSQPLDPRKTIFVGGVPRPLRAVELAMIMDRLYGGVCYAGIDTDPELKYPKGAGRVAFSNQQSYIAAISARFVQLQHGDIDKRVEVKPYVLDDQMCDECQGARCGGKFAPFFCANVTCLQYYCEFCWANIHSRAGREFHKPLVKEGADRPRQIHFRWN
Put plainly: co-IP; HEK cells with hCPEB2 and hDnaJB6; immunoprecipitation with anti-GFP (GFP-Trap beads), blot with anti-Flag.

Another assay has as its target Orb2A (Drosophila) (UniProt Q9VSR3). Put plainly: co-IP; S2 cells cotransfected with untagged Orb2A (or Orb2B) and an HA-tagged Hsp40 or Flag-tagged Hsp70; lysate (150 mM NaCl, 50 mM Tris, 1% NP40) with anti-Orb2 antibody and Protein-A beads, 4°C; blot with anti-HA or anti-Flag; control IP with beads only.

Turning to “human DnaJB6 (from UniProt O75190 1-326)”, the binding result with human CPEB2 (human) is recorded as “binds”.

For Hsp70Aa (from UniProt P82910 1-642), in the assay with Orb2A (Drosophila), the binding result is “binds”.

Regarding DnaJ1-HA (from UniProt Q24133 1-334), in the assay with Orb2A (Drosophila), the binding result is recorded as “no binding”.

Regarding Hsc70-4 (from UniProt P11147 1-651), the binding entry in the assay with Orb2A (Drosophila) is on record as “binds”.

Take CG7394 (from UniProt Q9VTJ8 1-118): the binding entry in the assay with Orb2A (Drosophila) was “no binding”.

B1: CSP (protein, UniProt Q03751 1-249)
chain: MSAPGMDKRKLSTSGDSLYEILGLPKTATGDDIKKTYRKLALKYHPDKNPDNVDAADKFKEVNRAHSILSDQTKRNIYDNYGSLGLYIAEQFGEENVNAYFVVTSPAVKAVVICCAVITGCCCCCCCCCCCNFCCGKFKPPVNESHDQYSHLNRPDGNREGNDMPTHLGQPPRLEDVDLDDVNLGAGGAPVTSQPREQAGGQPVFAMPPPSGAVGVNPFTGAPVAANENTSLNTTEQTTYTPDMVNQKY
For the molecule B1, in the assay with Orb2A (Drosophila), the binding entry was “no binding”.

B2: CG7872 (protein, UniProt Q9VXT2 1-333)
chain: MRTHGLRLVLLALLPTMALGLLEGLYCGKENCYDVLGVTRESSKSEIGKAYRQLARRYHPDLHRGAEAKAAAETQFKLVATAYEILRDEESRTDYDYMLDNPDAYYAHYYRYYRRRVAPKVDVRVVIVVVLTIVSVIQYYSGWQRYDSAIKYFATVPKYRNQALEIARDEIQEKIQKKGKNRMSKNDQRDELERIIRRVIEEKMDVKGGYAKPTLWDVLWVQLIICPYTILSFIVWHAQWFWRYTVMKQPYGREQKLYLIRRHLGMGQHQFEAQEDKLIEEYLHLKLWKRENFVAWKAEQEEEMKKKLAENPRYKAYRRYMKNHGPGRITFED
On to B2, for which the binding result in the assay with Orb2A (Drosophila) was “no binding”.

B3: DnaJ60 (protein, UniProt P92029 1-217)
chain: MLRLCLPTRAGYVRNFSNDKPRKPETHYEVLNIRNDCSTREVRNAFVQLSKLYHPDVKSNAACPERTARFVQISEAYKTLIKPERRRDYDDSLLWQPSRSDRSPVGETVNPGQAWDVRPNYDPNPGPYYGIRGLKRVSNWQVAVVLMALGFVGALFGFTSVRSSFKLSRQIQDEISAEANSHHAAVVADAQKYGNEEQVRRMVDRMSRSPFNQSSAK
On to B3, for which the binding result in the assay with Orb2A (Drosophila) is recorded as “no binding”.

B4: CG6693 (protein, UniProt Q9VGR7 1-299)
chain: MSTLELCEKYFGTRDVYKLMELARGAGEKEVKKAYHKLSLLVHPDRVPEEQKAESTEKFKVLSKLYQVLTDTQKRALYDEQGVIDDDDESESKLSSWLELWSKIFKPITEEDINNYEKEYVESELERTDLKKAYLGGKGCINYLMNHVPFMKVEDEPRIQKIVQDMIASGEVPEYKIFTEEPAAKRKKRHQKYAREFKEAKVIKERLKRRQKEKDDQDLADNGGDLQQMILARRNQRESNFGSLMDRLMEKYGNEDDSDTVDFSAFEKKKKKSKKPAAKQETKPKLNGVKAGRVEKGKN
With B4, the binding result in the assay with Orb2A (Drosophila) is “no binding”.

B5: Jdp (protein, UniProt Q9TVP3 1-195)
chain: MSAVDAIINYKRSPNEDFYGLLHCDENSSPEQIQAEYKVLALQYHPDKNSGDKEAEAKFQQLKEAKETLCDPEKRAIYDKWRNSGISMSYKQWLGMKEHVGQVRRYTIAEKVDKESMHWVTPKTKDRMLPETGGAAAQGPGTGAGCSSGGLTAASPNPAHRRASEGGAALYYGSRKGEWGGENTDVANKFRNYEI
Consider B5, for which, in the assay with Orb2A (Drosophila), the binding entry is “no binding”.

B6: CG4164 (protein, UniProt Q9VPQ2 23-354)
chain: GRDFYKILNVKKNANTNEVKKAYRRLAKELHPDKNKDDPDASTKFQDLGAAYEVLSNPDKRKTYDRCGEECLKKEGMMDHGGDPFSSFFGDFGFHFGGDGQQQDAPRGADIVMDLYVSLEELYSGNFVEIVRNKPVTKPASGTRKCNCRQEMVTRNLGPGRFQMIQQTVCDECPNVKLVNEERTLEIEVEQGMVDGQETRFVAEGEPHIDGEPGDLIVRVQQMPHPRFLRKNDDLYTNVTISLQDALVGFSMEIKHLDGHLVPVTREKVTWPGARIRKKGEGMPNFENNNLTGNLYITFDVEFPKKDLTEEDKEALKKILDQSSINRIYNGL
B6: the binding entry with Orb2A (Drosophila) is reported as “binds”.

B7: L(2)tid (protein, UniProt Q27237 63-520)
chain: AKDYYATLGVAKNANGKDIKKAYYQLAKKYHPDTNKEDPDAGRKFQEVSEAYEVLSDEQKRREYDTYGQTAENIGRQGGGFPGGGAGGFGPEGFSQSWQFRSSIDPEELFRKIFGEGNFRTNSFDDFADSKFGFGQAQEMVMDLTFAQAARGVNKDVNVNVVDQCPKCAGTKCEPGTKPGRCQYCNGTGFETVSTGPFVMRSTCRYCQGTRQHIKYPCSECEGKGRTVQRRKVTVPVPAGIENGQTVRMQVGSKELFVTFRVERSDYFRREGADVHTDAAISLAQAVLGGTVRVQGVYEDQWINVEPGTSSHHKIMLRGKGLKRVNAHGHGDHYVHVKITVPSAKKLDKKRLALIEAYAELEEDTPGQIHGIANRKDGSKQATAGASEEPGAGAAAKASAAAAGSGASKPGPGAEKSEGKDQWTDNEKTKAKEGGGSGSGQGDGGGGGFISKIKSMFN
B7: in the assay with Orb2A (Drosophila), the binding result is listed as “no binding”.
